Measured values: PubChem BioAssay AID743279 (National Center for Advancing Translational Sciences (NCATS), 2014)
About 17,000 (4.7%) of roughly 360,000 compounds were called active. Inconclusive results, whose numbers are uncertain, are shown with a selection of clear calls. No stated cut-off is given here; in the data, active means activity change below about -50%; inconclusive means mostly about -30% to -49%; inactive means weaker than that.
On the % scale 0 is the no-effect control and ±100 the full control effect.

Assay: qHTS for Inhibitors of Inflammasome Signaling: IL-1-beta AlphaLISA Primary Screen
Conditions: THP-1 LPS/ATP IL-1B secretion, 16 h; at 57.5 µM, stronger effect = lower value
In short: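 Secreted IL-1B measured by AlphaLISA bead assay after 16 h compound exposure of THP-1 cells; compounds (final up to 57.5 uM) added 1 h before LPS (250 ng/mL) and ATP (1.25 mM) stimulation; lower signal means less secretion.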
With `Cc1nc([N+](=O)[O-])c(C(=O)OCc2ccc(C#N)cc2)n1C` the activity change was inactive: -7.97%. For `CCOc1cc(C)nc(NCCc2ccc(OC)c(OC)c2)n1`, the activity change was active: -56.7%. In the case of `CCOc1ccc(-c2nc(-c3cccnc3)no2)cc1`, the activity change is reported as inconclusive: -38%. In the case of `CCC(C)C(=O)N1CCCC(c2nc(-c3cccs3)no2)C1` (configuration not stated), the activity change is reported as inactive: -14.5%. In the case of `Nc1ccccc1SC(C[N+](=O)[O-])c1ccccc1` (configuration not stated), the activity change is reported as inconclusive: -42.8%. For `Cn1c(/C=C/c2ccccc2)nc2ccccc21`, the activity change was inactive: 19%. In the case of `CC(=O)c1sc(C(C)(C)C)cc1NC(=O)/C=C/C(=O)O`, the activity change is reported as active: -95.9%. For `O=C(/C=C/c1ccccc1)NC(NC(=S)Nc1ccc(Cl)cc1)C(Cl)(Cl)Cl` (configuration not stated), the activity change was inconclusive: -37.8%. With `O=C(Nc1ccc(-n2cnnn2)cc1)C1CCCN1C(=O)Nc1ccc(Br)cc1` (configuration not stated) the activity change was active: -57.7%. With `CCc1nnc(N2CCN(c3ncnc4c3oc3ccccc34)CC2)s1` the activity change was inconclusive: -49.1%. In the case of `Cc1noc(C)c1COc1ccc(C(=O)OCC(=O)Nc2ccc(C(=O)N(C)C)cc2)cc1`, the activity change is reported as inactive: 6.61%. With `O=C1C=C(C#Cc2ccccc2)C[C@@H](c2ccc(F)cc2)C1` the activity change was active: -84.9%. With `Cc1c(-c2nc(N)nc(Nc3ccccc3)n2)oc2ccccc12` the activity change was inconclusive: -33.8%. In the case of `CCOC(=O)c1cc(-c2ccc(C)cc2)n(CCC(=O)N2CCN(c3ccccn3)CC2)c1C`, the activity change is reported as active: -55.8%. With `COc1ccc(-c2csc(NC(=O)CS(=O)(=O)c3ccccc3)n2)c(OC)c1` the activity change was inconclusive: -36.1%. For `COc1cc(OC)c(C(=O)Nc2ncn[nH]2)cc1OC`, the activity change was inconclusive: -40.1%. For `CN(C)c1ccc(C=c2c3cc([N+](=O)[O-])ccc3n3c2cc(-c2ccccc2)[n+]3C)cc1`, the activity change was active: -115%. For `CNC(=O)OCc1nc(SSC(C)(C)C)n(C)c1COC(=O)NC`, the activity change was active: -100%. In the case of `CC1(Cc2ccccc2OC(F)(F)F)C(=O)Nc2ccc(OC(F)(F)F)cc21` (configuration not stated), the activity change is reported as inconclusive: -43.8%. In the case of `CCc1cccc(N(C(=O)c2csnn2)C(C(=O)NC(C)(C)C)c2ccccn2)c1` (configuration not stated), the activity change is reported as active: -55.9%. For `CN(C)CCN1C(=O)NC(C)(c2ccc([N+](=O)[O-])cc2)C1=O` (configuration not stated), the activity change was inactive: 16.7%. For `O=C1CC(SC(=Nc2ccccc2)Nc2ccccc2)C(=O)N1c1ccc(Cl)c(Cl)c1` (configuration not stated), the activity change was inconclusive: -38.2%. With `Cc1nc(N2CCN(c3ccccn3)CC2)c2c(C)c(C(=O)Nc3ccc(F)cc3Cl)sc2n1` the activity change was inconclusive: -34.2%. In the case of `O=C(c1cc(-c2ccccc2)n[nH]1)N1CCc2c([nH]c3ccccc23)C1c1ccccn1` (configuration not stated), the activity change is reported as active: -64.7%. In the case of `CCOC(=O)c1cc(C#N)c(N2CCN(c3ccccn3)CC2)nc1-c1ccccc1`, the activity change is reported as inactive: -22.4%. With `O=C(/C=C/c1ccc(Br)cc1)c1ccco1` the activity change was active: -108%. In the case of `CN1C(=O)c2cccc3c(Br)ccc(c23)C1=O`, the activity change is reported as inconclusive: -48.8%. For `O=C(CSc1nc(Nc2ccccc2)nc(N2CCOCC2)n1)N1CCCC1`, the activity change was active: -53%. With `COc1ccc(C(=O)NNC(=S)NC(=O)C(C)(C)C)cc1` the activity change was active: -102%. With `O=[N+]([O-])c1cccnc1Sc1ccc(Br)cc1` the activity change was inconclusive: -37.9%. With `Cc1ccccc1C(=O)Nc1ccc2c(c1)OCO2` the activity change was inconclusive: -45.8%. In the case of `Cn1c(-c2ccccc2)c(/C=N/NC(=O)c2ccc(O)cc2)c2ccccc21`, the activity change is reported as inconclusive: -35.1%. In the case of `CC(=O)Nc1sc2c(c1C(c1ccc(Cl)cc1)N1CCOCC1)CCCC2` (configuration not stated), the activity change is reported as inconclusive: -44.6%. In the case of `CC(C)[C@H](NC(=O)OCc1ccccc1)C(=O)OCC(=O)N1CCN(c2ccccc2)CC1`, the activity change is reported as inactive: 6.9%. In the case of `CC(C)CCCN1CCN=C1N(C)C`, the activity change is reported as inactive: -0.114%. In the case of `Cc1ccc2cc(CN(Cc3ccco3)C(=O)NC3CCCCC3)c(=O)[nH]c2c1C`, the activity change is reported as inconclusive: -47.5%. In the case of `COc1cccc(Cn2cccc(NC(=O)Nc3ccc(C#N)cc3)c2=O)c1`, the activity change is reported as inactive: -3.72%. For `O=C(Cn1cc([N+](=O)[O-])cn1)N1CCc2ccccc2C1`, the activity change was inconclusive: -30.9%. In the case of `CC1CN(S(=O)(=O)c2cccc(C(=O)Nc3ccc(N4CCCCC4)cc3)c2)CC(C)O1` (configuration not stated), the activity change is reported as inactive: 1.71%. In the case of `CCC(C)Nc1ncnc2c1cnn2Cc1ccc(Cl)cc1` (configuration not stated), the activity change is reported as inconclusive: -47.2%. In the case of `CC(C)(C)CC(C)(C)NCC(O)COCCOc1ccc(Br)cc1` (configuration not stated), the activity change is reported as active: -99.4%. In the case of `O=C(Cc1cccc2ccccc12)N/N=C/C=C/c1cccc([N+](=O)[O-])c1`, the activity change is reported as inconclusive: -38.2%. For `CCC(C)N(C(=O)c1csnn1)C(C(=O)NCc1ccc(F)cc1)c1ccccc1F` (configuration not stated), the activity change was inactive: -4.21%. For `O=C(NC(=S)NCCO)c1sc2ccccc2c1Cl`, the activity change was inconclusive: -36.1%. In the case of `CCOc1ccc(NC(=O)CN(C)C(=O)c2ccccc2SCC(=O)N2CCCC2)cc1OCC`, the activity change is reported as inactive: -9.14%. With `CN(NC(=O)/C=C/C(=O)O)c1ncc(C(F)(F)F)cc1Cl` the activity change was inactive: 2.12%. With `COc1ccccc1N1CCN(C(=O)CSc2nc3ccccc3nc2N2CCC(C)CC2)CC1` the activity change was inconclusive: -36.4%. For `CC(C)OCCCNC(=O)CN1C(=O)/C(=C/c2ccccc2F)Oc2ccccc21`, the activity change was inactive: 14.1%. In the case of `COc1ccc(NC(=O)[C@H](C)NC(=O)C2CCN(S(=O)(=O)c3ccc(OC)cc3)CC2)cc1`, the activity change is reported as inconclusive: -48.2%. For `Nc1nnc(SCC(=O)Nc2ccc(F)c(Cl)c2)n1-c1ccccc1`, the activity change was inactive: -4.69%. In the case of `Cn1c(NCc2cc(Br)ccc2O)nc2ccccc21`, the activity change is reported as inconclusive: -42.8%. In the case of `O=C(Nc1ccc(F)c(Cl)c1)C1Cc2c(-c3cccc(F)c3)ccnc2O1` (configuration not stated), the activity change is reported as inconclusive: -47.3%. For `Cc1ccccc1CN1CCCC(C(=O)Nc2ccc(-c3ccn[nH]3)cc2)C1` (configuration not stated), the activity change was inconclusive: -46.9%. For `COc1ccccc1C(=O)Nc1ccnn1C1CCN(CC2CC=CCC2)CC1` (configuration not stated), the activity change was inactive: -3.3%. With `O=C(CCSc1nc(-c2ccco2)cc(C(F)(F)F)n1)N1CCN(c2ccccn2)CC1` the activity change was inconclusive: -44%. For `CCCOC1CCCN(C(=O)CCc2nnc(Cc3cccc(C)c3)o2)C1` (configuration not stated), the activity change was inactive: 16.4%. For `CCN1CCc2c(sc(NC(=O)c3ccc(S(=O)(=O)N4CCOCC4)cc3)c2C(N)=O)C1`, the activity change was inconclusive: -37.7%.
